Results from PubChem BioAssay AID1159614 (National Center for Advancing Translational Sciences (NCATS), 2016).
Out of some 45,000 compounds screened, about 65 (0.1%) were called active. Calls come from the whole dose curve; as a rule, active = well fitted activation curve with a large enough effect; inconclusive = small, poorly fitted or top-dose-only effect; inactive = no such curve, though single readings can be large or run the other way. Some of the results follow.

biological target: Galactocerebrosidase (Homo sapiens) (UniProt P54803); assay: A Novel Cell-Based Assay to Identify Small Molecules for B -Galactocerebrosidase; conditions: 145M-Twi-hGALC-G270D cells (Twitcher mouse brain line with human GALC G270D), HMU-beta-Gal fluorescence, 48 h; series mostly up to 57.5 µM; activation: at the top concentration; note: 0% is about no effect; nearly all actives have a fitted effect of over 65% in size
Chain of UniProt P54803 (P54803 whole entry, looked up): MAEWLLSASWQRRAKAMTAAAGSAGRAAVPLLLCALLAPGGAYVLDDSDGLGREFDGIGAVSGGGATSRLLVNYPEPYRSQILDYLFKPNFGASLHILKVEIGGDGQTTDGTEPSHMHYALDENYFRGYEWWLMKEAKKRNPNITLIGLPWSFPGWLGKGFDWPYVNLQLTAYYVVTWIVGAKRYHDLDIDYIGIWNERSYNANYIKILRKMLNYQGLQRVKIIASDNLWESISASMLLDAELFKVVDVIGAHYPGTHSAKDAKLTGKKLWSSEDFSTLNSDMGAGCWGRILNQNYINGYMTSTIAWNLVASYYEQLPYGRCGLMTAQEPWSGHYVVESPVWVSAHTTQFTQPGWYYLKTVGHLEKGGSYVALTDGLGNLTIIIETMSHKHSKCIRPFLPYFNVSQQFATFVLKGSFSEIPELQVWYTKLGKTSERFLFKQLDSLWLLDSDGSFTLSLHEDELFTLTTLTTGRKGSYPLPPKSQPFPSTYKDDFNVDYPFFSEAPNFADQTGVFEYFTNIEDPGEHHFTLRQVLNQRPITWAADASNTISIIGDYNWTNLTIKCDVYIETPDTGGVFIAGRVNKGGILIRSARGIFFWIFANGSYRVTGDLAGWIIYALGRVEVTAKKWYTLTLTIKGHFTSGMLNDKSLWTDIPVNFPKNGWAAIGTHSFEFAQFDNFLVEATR
Method in brief: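 Fluorescence readout: HMU-β-gal cleavage by mutant GALC (0.1 mM final, citrate/phosphate pH 5.2 with 1 mg/mL taurocholate), stopped with carbonate/bicarbonate plus Triton X-100. Cells: murine Twitcher 145M-Twi expressing human G270D GALC; qHTS for activators.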

activation, inactive:
CCOC(=O)c1c(C)[nH]c(CCC(=O)Nc2ccc(C)c(F)c2)c1C -18.2%
CC(C)NC(=O)CN1C(=O)COc2ccc(S(=O)(=O)N3CCCCCC3)cc21 0.252%
CC1CC(OC(=O)C(O)c2ccccc2)CC(C)(C)N1C (stereo not drawn) -17.2%
Cc1cccc(OCC(=O)Nc2ccc(Cl)c(-c3nc4ncccc4o3)c2)c1C 6.41%
CCOc1ccccc1NC(=O)CN(C)S(=O)(=O)c1ccc2nc(C)sc2c1 -6%
Cc1nc(Oc2ccc(F)cc2Cl)c2oc3ccccc3c2n1 -16.5%
CCC(=O)N1CCc2cc(Br)cc(S(=O)(=O)CCC(=O)NCc3ccc(Cl)cc3)c21 -14.7%
Cc1ccc(C)c(NC(=O)CN2C(=O)C(C)(C)c3ccccc32)c1 -24.9%
O=C(Nc1sc2c(c1C(=O)NCc1ccco1)CCCC2)c1cc(=O)c2ccccc2o1 -14.4%
COc1ccc(Br)cc1CNC(=O)c1cc2n(n1)CCCN(Cc1ccc(C)cc1)C2=O -4.8%
Cc1ccc(NC(=O)CCc2nnc3n(C)c(=O)c4sccc4n23)cc1C -4.84%
CSC1=NC2(CCN(C(=O)NC3CCCCC3)CC2)N=C1c1ccc(C)c(C)c1 3.86%
Cc1ccc(CNC(=O)CC(C)S(=O)(=O)c2cc3c(cc2C)NC(=O)CO3)cc1 (stereo not drawn) -8.38%
CC(C)Oc1ccc(C(=O)N(Cc2ccco2)c2ccccn2)cc1 -15.1%
COC(=O)c1scc(-c2ccc(C)cc2)c1S(=O)(=O)N1CCN(c2cccc(OC)c2)CC1 -11.3%
Cc1ccc(Sc2c(C)nn(C(C)(C)C)c2OC(=O)C(C)(C)C)cc1 -20%
CCc1nnc(SC(CC)C(=O)Nc2cccc(OC)c2)c2cc3oc(C)cc3n12 (stereo not drawn) -6.61%
Fc1ccc(Nc2c3c(nc4ccccc24)CCC3)cc1 -9.75%
CCc1ccc(CN(Cc2ccco2)c2cnc(S(C)(=O)=O)nc2C(=O)Nc2ccccc2Cl)cc1 -2.83%
CCN(C(=O)C1CCCN(S(=O)(=O)c2c(C)noc2/C=C/N(C)C)C1)c1cccc(C)c1 (stereo not drawn) -11%
CCN(c1ccccc1)c1nnc(NC(=O)Nc2ccccc2F)s1 -11.4%
Cc1ccc(NC(=O)Nc2ccc3snnc3c2)cc1C -31.9%
O=C(NCc1ccco1)c1ccc2c(c1)N(Cc1ccc(Cl)cc1)C(=O)c1ccccc1S2=O (stereo not drawn) -5.86%
CCOC(=O)c1ccc(NC(=O)CC2C(=O)OCCN2CC)cc1 (stereo not drawn) -4.55%
Cc1cccc(Cn2c(SCc3ccc(C(=O)NCCc4ccccc4)cc3)nc3ccncc32)c1 4.6%
CCc1cccc(C)c1NC(=O)Cn1ccn(-c2cccc(OC)c2)c(=O)c1=O -10%
O=C(CCc1nc(CN2CCN(S(=O)(=O)c3ccc(Cl)cc3)CC2)no1)N1CCCCC1 -17.3%
O=C(CCC1N=C2c3ccccc3N=C(SCc3ccc(F)cc3)N2C1=O)NCc1ccc(F)cc1 (stereo not drawn) -1.08%
COc1ccc(-c2cc3nc(C)c(CCC(=O)Nc4ccccc4C(C)=O)c(C)n3n2)c(OC)c1 -28.9%
COc1ccc(-n2c(=O)c3c(c4cc(OC)ccc4n3C)n(Cc3cccc(OC)c3)c2=O)cc1 6.87%
CCCC1=Nc2cc(C(=O)NCc3ccc(OC)cc3)ccc2Sc2ccc(C)cc21 -25%
Fc1cccc(-n2ncc3c2ncn2nc(COc4ccc(Cl)cc4)nc32)c1 -6.56%
O=C(CSCc1cccc(F)c1)NCc1ccccc1 6.64%
O=C(NCCc1c[nH]c2ccccc12)c1cccnc1 -17.6%
CN1CCc2c(sc3c2C(=O)NC(c2ccc(OC(=O)c4ccc(C(C)(C)C)cc4)cc2)N3)C1 (stereo not drawn) -6.12%
CCC(C(=O)Nc1cc(OC)cc(OC)c1)n1nc(-c2ccc(C)c(C)c2)ccc1=O (stereo not drawn) -17.2%
Cc1nc2scc(C)n2c(=O)c1S(=O)(=O)Nc1ccc(N2CCOCC2)c(Cl)c1 -46.8%
CCOc1ccc(-c2nc(CSCC(=O)N3CCN(c4ccc(F)cc4)CC3)c(C)o2)cc1 -29.4%
C1CCN2C[C@@H]3C[C@@H](CN4CCCC[C@@H]34)[C@H]2C1 -8.87%
CCOc1ccc(C(=O)NCCn2cc(SCC(=O)Nc3ccc4c(c3)OCCO4)c3ccccc32)cc1 5.24%
COc1cc(NC(=O)Cn2c(=O)n(Cc3ccco3)c(=O)c3sc4ccccc4c32)cc(OC)c1 -17.2%
COCCCNc1oc(/C=C/c2cc(OC)c(OC)c(OC)c2)nc1C#N -12.6%
CCN(CC)C(=O)c1sc2c(c1C)c(=O)n(-c1ccc(Cl)c(Cl)c1)c(=O)n2Cc1ccccc1C#N 12.1%
Cc1cc(-c2ccc(C)c(S(=O)(=O)N3CCN(c4cccc(C(F)(F)F)c4)CC3)c2)on1 -19.8%
Cc1cccc(CCNC(=O)c2ccc3c(c2)N(Cc2ccccc2F)C(=O)c2ccccc2S3)c1 -8.32%
Cc1ccc(Oc2c(C(F)(F)F)oc3c(CN4CCC(C)CC4)c(O)ccc3c2=O)cc1 -13.6%
CCc1cccc(NC(=O)CCC(=O)N2CCSc3ccccc32)c1 -3.93%
CN(C)c1ccc(-c2nc(-c3cc4cc(Cl)ccc4oc3=O)cs2)cc1 -2.27%
Cc1ccc(N2CCN(C(=O)c3c(C)oc4ncn(CC(C)C)c(=O)c34)CC2)c(C)c1 -16.4%
Cc1ccc(C)c(N2CCN(C(=O)C3CCN(c4nc5ccc(C)cc5[nH]4)CC3)CC2)c1 -1.8%
Cc1cccc(NC(=O)CSc2ncc3c(n2)-c2ccccc2N(Cc2ccc(F)cc2)S3(=O)=O)c1C -13.2%
CC(=O)N1CCCc2cc(S(=O)(=O)N3CCC(C(=O)Nc4cccc(Cl)c4C)CC3)ccc21 -16.7%
Cc1cc2ccccc2n1-c1ccc(C(=O)N2CCC(C(=O)NCc3ccc(Cl)cc3)CC2)s1 -3.5%
CCN(CC)C(=O)c1c(-c2ccccc2)c(-c2ccccc2)nn(C)c1=O -4.22%
CCc1ccc(C(=O)c2cn(CC(=O)Nc3cc(C)ccc3C)c3nc(C)ccc3c2=O)cc1 13.1%
O=C(CSc1nnc(-c2cccs2)o1)Oc1ccccc1 10.5%
COc1ccc(N2CCN(C(=O)CCn3nc(C)c(S(=O)(=O)N4CCCC4)c3C)CC2)cc1 9.19%
O=C(Cn1ncc2c3ccccc3n(Cc3ccc(Cl)cc3)c2c1=O)NCc1ccccn1 -8.06%
NC(=O)c1ccccc1NC(=O)c1ccc(-c2ccc(Br)cc2)o1 -21%
COC(=O)c1cc(S(=O)(=O)N2CCN(c3cccc(C)c3)C(C)C2)cn1C (stereo not drawn) -13.2%
O=C(CSc1nnc(-c2ccccc2)o1)c1cccc([N+](=O)[O-])c1 -14.7%
CCN(CC)CCCNC(=O)c1ccc(-c2nc(CN3CCc4ccccc43)c(C)o2)cc1 -14.7%
CCOC(=O)c1c(C)[nH]c(CCC(=O)NCc2ccc(CC)cc2)c1C -8.24%
CC(=O)c1cccc(NC(=O)Cn2nc(C)n3cccc3c2=O)c1 5.89%
CCN(CC)CCCNC(=O)c1ccc2c(=O)n(CCc3ccccc3)c(=O)[nH]c2c1 -11.1%
CCOc1ccc(C(=O)Nc2ccc3nc(SCCOc4ccccc4)sc3c2)cc1 -12.8%
CCc1ccc(-n2cnc3cc(C(=O)NCc4ccc(C)cc4)ccc32)cc1 -21.7%
COc1ccc(S(=O)(=O)NCCc2csc(-c3ccc(F)cc3)n2)cc1 -6.37%
Cc1cc(C)cc(OCC(=O)Nc2ccc(S(=O)(=O)Nc3onc(C)c3C)cc2)c1 7.66%
O=C(CSC1=Nc2ccccc2C2=NC(Cc3ccccc3)C(=O)N12)Nc1ccccc1F (stereo not drawn) -4.74%
CCOC(=O)NC1(C(F)(F)F)NC(=O)N(c2ccc(C)c(C)c2)C1=O (stereo not drawn) 15%
CCc1ccc(-n2nc(C)c3c(C(=O)Nc4cc(OC)cc(OC)c4)cc(C)nc32)cc1 -9.83%
CCOc1ccc(-c2nc(SCC(=O)NCCOC)c(-c3ccc(OC)c(OC)c3)[nH]2)cc1 -21.5%
Cc1cc(C)cc(NC(=O)CSc2nc(-c3cccc(Cl)c3)nc3c2Cc2c(CO)cnc(C)c2O3)c1 -6.04%
CSc1nc2sc3c(c2c(=O)n1-c1ccc(F)c(Cl)c1)CCN(C(C)=O)C3 -11.6%
Cc1ccccc1NC(=O)CSC1=Nc2ccccc2C2=NC(CCC(=O)NCc3ccccc3)C(=O)N12 (stereo not drawn) -19.2%
Cc1nn(CC(=O)NCc2ccccc2Cl)c(=O)c2nn(-c3ccccc3)c(C)c12 -4.02%
Cc1nc(CC(=O)Nc2ccc(N(C)C)cc2)cs1 -6.46%
COc1ccc(-n2nc(C(=O)Nc3cccc(C(F)(F)F)c3)c3c4ccccc4n(C)c3c2=O)cc1 -12.6%
CCCCn1cc(S(=O)(=O)c2ccc(OC)cc2)c(=O)c2cc(F)c(N3CCCC3)cc21 -16.1%
Cc1ccc(-c2nc(C)c(CCNS(=O)(=O)c3ccccc3F)s2)cc1 -39.4%
Cc1cc(C)cc(N2C(=O)N(CC(=O)c3ccc(Br)cc3)c3ccccc3S2(=O)=O)c1 -9.5%
O=S(=O)(NCc1cccc(Br)c1)c1ccc(-c2cc(C(F)(F)F)on2)s1 -14.1%
COc1ccccc1CNC(=O)CN1C(=O)COc2ccc(S(=O)(=O)N3CCCCC3)cc21 -8.66%
CCN(CC)C(=O)c1sc2c(c1C)c(=O)n(-c1ccc(Cl)c(Cl)c1)c(=O)n2Cc1cc(=O)n2c(C)cccc2n1 -5.78%
COc1ccc(C(=O)Nc2ccc3nc(SCC(=O)N4CCCc5ccccc54)sc3c2)cc1 0.11%
COC(=O)c1sccc1S(=O)(=O)N(CC(=O)NCc1ccc(C)cc1)c1ccc(Cl)cc1 4.71%
Cc1cccc(NC(=O)N2CCC(CN3CCc4ccccc4C3)CC2)c1C -7.89%
CN1C(=O)C(C)(C)c2cc(S(=O)(=O)NCc3ccc(C(=O)Nc4ccc(Cl)cc4)cc3)ccc21 -7.21%
CCOc1ccc(NC(=O)Cn2cc(C(=O)c3ccc(C)c(C)c3)c(=O)c3cc4c(cc32)OCCO4)cc1 -0.195%
CCOC(=O)c1cccc(NC(=O)CN2C(=O)CC(C)(C)Sc3ccccc32)c1 -8.23%
Cc1ccc(C(=O)Nc2c(C(=O)NCc3ccc(Cl)cc3)sc3nc(C)cc(C)c23)cc1 -8.7%
Cc1ccc(Nc2c(-c3ccc(N4CCOCC4)cc3)nc3ncccn23)cc1 -19.9%
